According to paper PMC4336329 (PLoS ONE, 2015):
Among all 310,000 compounds or so, about 2,200 (0.71%) showed an effect of 50% or more. The effect is printed as a negative number. This is one part of the list.

target: human ether-à-go-go-related gene (hERG) potassium channel (human, UniProt Q12809); assay: primary screen, population patch clamp on CHO cells stably expressing hERG
Sequence (Q12809 whole entry, looked up): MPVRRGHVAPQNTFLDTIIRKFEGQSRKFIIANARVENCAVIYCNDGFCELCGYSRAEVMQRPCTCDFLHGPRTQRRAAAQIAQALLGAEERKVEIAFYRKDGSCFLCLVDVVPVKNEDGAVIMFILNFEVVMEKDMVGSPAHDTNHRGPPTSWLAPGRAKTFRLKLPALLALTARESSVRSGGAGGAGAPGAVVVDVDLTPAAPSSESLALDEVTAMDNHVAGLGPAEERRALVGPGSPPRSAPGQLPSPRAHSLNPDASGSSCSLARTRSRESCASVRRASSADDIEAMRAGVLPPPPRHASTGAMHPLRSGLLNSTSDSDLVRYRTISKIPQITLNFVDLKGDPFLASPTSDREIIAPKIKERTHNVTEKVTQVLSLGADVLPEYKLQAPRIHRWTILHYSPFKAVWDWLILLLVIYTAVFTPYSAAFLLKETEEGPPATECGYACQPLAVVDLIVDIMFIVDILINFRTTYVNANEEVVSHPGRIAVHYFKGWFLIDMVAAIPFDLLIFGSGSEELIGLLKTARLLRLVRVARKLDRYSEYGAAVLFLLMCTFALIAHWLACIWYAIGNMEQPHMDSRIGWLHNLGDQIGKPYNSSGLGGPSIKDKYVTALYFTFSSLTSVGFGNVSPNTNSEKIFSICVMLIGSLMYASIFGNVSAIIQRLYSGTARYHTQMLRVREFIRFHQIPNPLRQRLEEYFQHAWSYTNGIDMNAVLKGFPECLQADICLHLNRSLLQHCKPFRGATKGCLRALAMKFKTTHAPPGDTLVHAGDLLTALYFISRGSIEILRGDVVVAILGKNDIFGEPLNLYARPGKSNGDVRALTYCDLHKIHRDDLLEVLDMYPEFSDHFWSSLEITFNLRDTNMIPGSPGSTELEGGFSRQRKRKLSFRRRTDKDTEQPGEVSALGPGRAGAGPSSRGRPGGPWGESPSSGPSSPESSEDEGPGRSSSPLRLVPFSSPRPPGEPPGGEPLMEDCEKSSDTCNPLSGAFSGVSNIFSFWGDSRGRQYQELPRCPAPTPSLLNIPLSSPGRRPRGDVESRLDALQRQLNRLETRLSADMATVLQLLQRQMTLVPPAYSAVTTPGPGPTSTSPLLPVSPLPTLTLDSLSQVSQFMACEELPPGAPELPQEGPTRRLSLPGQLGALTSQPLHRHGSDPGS

| Compound | hERG current change (%, negative = inhibition) at 1uM |
| --- | --- |
| CC(C)c1csc(CN2CCC(N3CCC(C(=O)NCC4CCCO4)CC3)CC2)n1 (centres unmarked) | 9.96% |
| CCOC(=O)c1ccc(N2C=C(C(=O)OC)C(c3ccc(OC)c(O)c3)C(C(=O)OC)=C2)cc1 | 12.8% |
| CCOC(=O)c1ccc(NC(=O)CCNC(=O)c2ccc([N+](=O)[O-])cc2)cc1 | -19.8% |
| C/C(=N\NC(=O)c1ccc(Cl)cc1)c1ccc2[nH]ccc2c1 | 19.8% |
| CN(C(=O)COC(=O)C1=COCCO1)C1(C#N)CCCCC1 | 11.8% |
| Cc1c(C(=O)N2CCOCC2)oc2ccc(S(=O)(=O)N3CCCC3)cc12 | 1.96% |
| CC(Sc1nnc(-c2ccc(Cl)cc2)n1N)C(=O)NCC1CCCO1 (centres unmarked) | 14.1% |
| Cc1ccc(-c2csc3nc[nH]c(=O)c23)cc1 | 12.1% |
| CCC(=O)Nc1ccc(C(=O)OCC(=O)c2cccs2)cc1 | 6.88% |
| C=C1CCN([C@H](C(=O)NCc2ccco2)C(C)C)S(=O)(=O)c2ccccc21 | 5.28% |
| Cc1ccc2c(c1)N(C(=O)CCC(=O)NCc1cccnc1)CCO2 | -4.63% |
| COCCOC(=O)c1c(C)n(C)c2ccc(OC(=O)C3CC3)cc12 | 12.7% |
| COc1ccc(N/N=C/c2c(O)n(-c3ccc(C)c(C)c3)c(=O)[nH]c2=O)cc1 | 16.4% |
| O=C(c1cc([N+](=O)[O-])[nH]n1)N1CCSCC1 | 8.77% |
| COCCNC(=O)c1cc(-c2ccc(Cl)c(Cl)c2)on1 | 10.3% |
| Cc1cccn2c(=O)c(C=Nc3ccccc3)c(NCCO)nc12 | 6% |
| O=C(CSc1nnc(-c2ccc(Br)cc2)n1C1CCCCC1)N1CCCC1 | -6.48% |
| COc1ccc(NC(=S)NCCN2CCC(C)CC2)cc1 | 4.13% |
| N#Cc1ccc(C(=O)CSc2n[nH]c(=O)n2-c2cccnc2)cc1 | 12% |
| CC(=O)c1ccc(N2CCN(C(=S)NCc3ccco3)CC2)cc1 | 1.83% |
| CC(=O)O.Cc1nc2nc(CSc3nnc(C)s3)cc(=O)n2[nH]1 | 10.1% |
| CCCCCCCCS(=O)CCC(=O)O (centres unmarked) | 7.32% |
| CCc1nc2cccnc2n1-c1ccc(CC(=O)NCCOC)cc1 | 17.5% |
| O=C(NC1(O)C(=O)c2ccccc2C1=O)c1c(Cl)cccc1Cl | 15.9% |
| CC1CN(C(=O)CSc2nnc(-c3ccc(Cl)cc3)n2C)CC(C)O1 (centres unmarked) | -3.02% |
| Cc1c(-n2cc(C(=O)c3ccccc3O)cc(C#N)c2=O)c(=O)n(-c2ccccc2)n1C.Cl | 6.19% |
